Source: PubChem BioAssay AID686979 (National Center for Advancing Translational Sciences (NCATS), 2013)
Several values for one entry are separate records, joined by “and”; a condition that tells them apart may be missing. Equal entries are not always repeated. About 50,000 (12%) of roughly 420,000 compounds were called active. The inconclusive results got no clear call from the source; some entries with a clear call stand among them for comparison. Calls follow the shape of the dose curve; as a rule, active = well fitted inhibition curve with a large enough effect; inconclusive = small, poorly fitted or top-dose-only effect; inactive = flat fitted curve, though single readings scatter. Potencies of inconclusive entries are doubtful fits and often do not repeat.
% is scaled to controls: 0 for no effect and ±100 for the full control effect; potency is read from the fitted curve at half-maximal effect; tags tell the direction and shape of the fitted curve.

Assay: qHTS for Inhibitors of human tyrosyl-DNA phosphodiesterase 1 (TDP1): qHTS in cells in presence of CPT; also: nearly all actives have a fitted effect of over 55% in size
Details: chicken DT40 Tdp1-/-;hTDP1 cells + 20 nM CPT, ATP luminescence, 48 h; activity change, negative = growth inhibition: at 46.2 µM (top of the series) unless noted
Outline: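 Cell growth measured by CellTiter-Glo luminescence after a minimum 48 h, 37 C compound exposure with 20 nM CPT in Tdp1-knockout DT40 cells stably expressing hTDP1, seeded 400/well; qHTS titration format.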
For `COc1ccc(CC(=O)Nc2ccccc2C(=O)NCCc2ccccc2)cc1`, the Potency was inconclusive: 20.6 µM [inhibitor, single point].
With `C#CCOCCOCCOCCNc1nc(N2CCN(C(=O)CCCCCCCCCCNC(=O)[C@H](CO)n3cc(CCCSC)nn3)CC2)nc(N2CCN(C(=O)CCCCCCCCCCNC(=O)[C@H](CCCN=C(N)N)n3cc(C[C@@H](C)CC)nn3)CC2)n1` the Potency was inconclusive: 29.1 µM [inhibitor, single point].
For `COc1ccc2occ(NC(C)=O)c2c1`, the Potency was inconclusive: 8.2 µM [inhibitor, partial curve].
With `CSCCC(NS(=O)(=O)c1cccc(C(F)(F)F)c1)C(=O)Nc1ccccc1N1CCCC1` (centres undefined) the Potency was inconclusive: 25.9 µM [inhibitor, single point].
For `COc1cc(/C=C(\C#N)C(=O)Nc2cccc(C(=O)O)c2)ccc1OCc1ccc(C)cc1`, the “activity change, negative = growth inhibition” value was inactive: -9.31%.
With `COc1ccccc1CNS(=O)(=O)c1ccc2c(c1)CC(C)N2C(=O)C1CC1` (centres undefined) the Potency was inconclusive: 16.4 µM [inhibitor, single point].
In the case of `CC(C)(C)C(=O)CSc1nc2c(c(-c3cccs3)c1C#N)CCC2`, the Potency is reported as inconclusive: 20.6 µM [inhibitor, single point].
For `Cc1cc(C(=O)Nc2ccc(Cl)cc2)c(C)n1Cc1cccs1`, the activity change, negative = growth inhibition was inconclusive: -30.7% [inhibitor].
For `O=C(NN=C1c2ccccc2-c2ccccc21)c1ccccc1`, the Potency was inconclusive: 29.1 µM [inhibitor, single point].
In the case of `CC(=O)Nc1cccc(-c2csc(C(C)(O)c3ccc(F)c(F)c3)n2)c1` (centres undefined), the Potency is reported as inconclusive: 18.4 µM [inhibitor, single point].
For `CNc1ccc(-c2cccc(C(=O)N3CCOCC3)c2)cn1`, the “activity change, negative = growth inhibition” value was inactive: -15.1%.
In the case of `O=C(c1sc2ccccc2c1Cl)N(Cc1cccs1)C1CCS(=O)(=O)C1` (centres undefined), the Potency is reported as inconclusive: 25.9 µM [inhibitor, partial curve, poor fit].
In the case of `Cc1noc(C)c1-c1cc(NC2CC2)ncn1`, the Potency is reported as active: 11.6 µM.
With `COc1cccc(CN(C)C(=O)c2ccc(NC(=O)CC3SC(N4CCCC4)=NC3=O)cc2)c1OC` (centres undefined) the “activity change, negative = growth inhibition” value was inactive: -13.7%.
With `O=C(Nc1ccc(N2CCOCC2)cc1)c1ccc([N+](=O)[O-])cc1` the “activity change, negative = growth inhibition” value was inactive: 11.7%.
With `COc1ccc(C(O)(C(C)C)C(CN2CCOCC2)c2ccccc2)cc1` (centres undefined) the Potency was inconclusive: 29.1 µM [inhibitor, single point].
In the case of `OC[C@@H]1CN(Cc2cccnc2)C[C@H](n2cnc3c(N4CCOCC4)ncnc32)O1`, the “activity change, negative = growth inhibition” value is reported as inactive: -14.2%.
For `COc1ccc(SC[C@H](Cc2ccccc2)N2CC[C@@H](NC(=O)OCc3ccccc3)CCC2=O)cc1`, the Potency was inconclusive: 35.5 µM [inhibitor, single point] and inconclusive: 29.1 µM [inhibitor, single point].
In the case of `Cc1ccc(S(=O)(=O)N2CCCCC2)cc1C(=O)Nc1cccnc1`, the “activity change, negative = growth inhibition” value is reported as inactive: 8.23%.
In the case of `Fc1ccc(-c2nnc(NC3=NCCCCC3)o2)cc1`, the Potency is reported as inconclusive: 25.9 µM [inhibitor, partial curve, poor fit].
For `Cc1ccc(CN2CCCn3nc(C(=O)NCCc4ccc(Cl)cc4)cc3C2=O)cc1`, the Potency was inconclusive: 4.11 µM [inhibitor, partial curve].
In the case of `CCCCCCNC(=O)c1cn(CC)c2cc(N3CCN(C)CC3)c(F)cc2c1=O`, the Potency is reported as active: 20.6 µM.
In the case of `C=CCN1C(=O)[C@@H]2Cc3c([nH]c4ccccc34)C(c3cc(OC)c(OC)c(OC)c3)N2C1=S` (some centres undefined), the Potency is reported as inconclusive: 29.1 µM [inhibitor, single point].
With `O=C(Cc1ccccc1Cl)NO` the “activity change, negative = growth inhibition” value was inactive: -0.665%.
For `Cc1cccn2c(=O)nc(SCC(=O)NCc3ccccc3)nc12`, the Potency was inconclusive: 14.6 µM [inhibitor, single point].
For `CN1c2ccccc2-c2nc(SCC(=O)Nc3ccccc3C(F)(F)F)ncc2S1(=O)=O`, the Potency was inconclusive: 29.1 µM [inhibitor, single point].
In the case of `O=c1oc(-c2cccs2)nc2ccccc12`, the Potency is reported as inconclusive: 29.1 µM [inhibitor, single point].
In the case of `Cc1ccc(OCCNC(=O)c2cc(-n3cnnc3)ccc2Cl)cc1C`, the “activity change, negative = growth inhibition” value is reported as inactive: -0.357%.
With `CN1CCC(N(C)S(=O)(=O)c2ccc(NC(=O)COc3ccc(F)cc3Cl)cc2)CC1` the “activity change, negative = growth inhibition” value was inactive: -15.8%.
For `CCOc1ccc(N2C(=O)CC(SC(=NC)Nc3ccc(F)cc3)C2=O)cc1` (centres undefined), the Potency was inconclusive: 29.1 µM [inhibitor, single point].
For `C[C@@H]1CC=C[C@H]2[C@H]1C(=O)N(Cc1ccccc1)[C@H]2c1ccc(/C=C/c2ccccc2)cc1F`, the Potency was inconclusive: 16.4 µM [inhibitor, single point].
For `O/N=C/Cc1[nH]c2ccccc2c1-c1ccccc1`, the “activity change, negative = growth inhibition” value was inactive: -7.61%.
For `Cc1ccc(CSc2nc3ccc(NC(=O)C(C)C)cc3s2)cc1`, the “activity change, negative = growth inhibition” value was inactive: -16.7%.
In the case of `O=C(COC(=O)CCC(=O)c1ccccc1)Nc1nnc(-c2ccccc2)o1`, the “activity change, negative = growth inhibition” value is reported as inactive: -16.7%.
With `Cc1nc2cc(NS(=O)(=O)c3ccccc3F)ccc2s1` the “activity change, negative = growth inhibition” value was inactive: -28.9%.
In the case of `CCCCOC(=O)n1c(=O)oc2cc(S(=O)(=O)N3CCCCC3)ccc21`, the Potency is reported as inconclusive: 23.1 µM [inhibitor, single point].
For `CCNC(=S)N/N=C/c1cn(Cc2ccccc2F)c2ccccc12`, the Potency was active: 6.51 µM.
With `S=c1[nH]nc(-c2ccccc2)n1/N=C/c1ccc(-c2ccccc2Cl)o1` the Potency was inconclusive: 25.9 µM [inhibitor, single point].
With `COc1ccccc1Cn1c(=S)[nH]c2cc(C(=O)NCCCN3CCOCC3)ccc2c1=O` the Potency was inconclusive: 29.1 µM [inhibitor, single point].
For `Cc1cnc(-n2ncc(C(=O)NC(C)(C)CO)c2-c2cccs2)nc1-c1ccc(F)cc1`, the activity change, negative = growth inhibition was inactive: -10.2% [at 9.04 µM].
For `CC(C(=O)NCc1ccco1)n1cc(C(=O)c2ccco2)c2ccccc21` (centres undefined), the Potency was inconclusive: 29.1 µM [inhibitor, single point].
For `CCCNC(=O)C1(C)CCN(C(=O)c2ccc(F)c(Cl)c2)C1` (centres undefined), the “activity change, negative = growth inhibition” value was inactive: -1.98%.
With `Cc1ccc2[nH]c3c(c2c1)CN(C(=O)CN1CCCCC1)CC3` the Potency was inconclusive: 25.9 µM [inhibitor, single point].
For `COc1ccc(/C=C/C(=O)Nc2nc(C)cc(C)n2)cc1OC`, the Potency was inconclusive: 29.1 µM [inhibitor, single point].
